Experimental findings from patent US20170008949A1 (Hoffmann-La Roche, published 2017) are described below.

Where a chain is given by its changes, count along the chain named.

Assay [1] addresses recombinant non-glycosylated human PAI-1 (active), produced in E. coli as N-terminal 6xHis-tagged fusion … (human, UniProt P05121). In words: cell-based or functional assay.
Assay [2] addresses recombinant glycosylated human PAI-1 (active), produced in insect cells (human, UniProt P05121, glycosylated (sites not given)). In words: cell-based or functional assay.

B1: PAI1-0004 (RCL-SMB-Fc conjugate) (Fc fusion)
chain: GTVASSSTAVIVSARGGGGSGGGGSGGGGSGGGGSESCKGRCTEGFNVDKKCQCDELCSYYQSCCTDYTAE[human IgG1 Fc not printed]
Turning to B1, the figures for the “IC50 (µM) vs. human PAI-1, PAI-1 inhibition assay (residual rPA serine protease activity)” value in assay [1] and in assay [2] were 0.003 µM and 0.002 µM, respectively.

B2: PAI1-0005 (RCL-SMB-Fc conjugate) (Fc fusion)
chain: GTVASSSTAVIVSARGGGGSGGGGSGGGGSGGGGSGGGGSGGGGSESCKGRCTEGFNVDKKCQCDELCSYYQSCCTDYTAE[human IgG1 Fc not printed]
With B2, the “IC50 (µM) vs. human PAI-1, PAI-1 inhibition assay (residual rPA serine protease activity)” value in assay [1] stood at 0.0005 µM; in assay [2] it was 0.002 µM.

B3: PAI1-0036 (RCL-SMB-Fc conjugate) (Fc fusion)
chain: B2 chain with R15S
With B3, the “IC50 (µM) vs. human PAI-1, PAI-1 inhibition assay (residual rPA serine protease activity)” value in assay [1] and in assay [2] was 0.001 µM throughout.
